What all share (assay): glycan array binding signal (z-score within array); higher = stronger binding
Common to all, as to details: glycan notation: IUPAC condensed, linker removed

In experiment [1] the target is Neu5Ac(a2-3)Gal(b1-4)GlcNAc(b1-3)[Neu5Ac(a2-3)Gal(b1-4)GlcNAc(b1-6)]GalNAc. A digest of the protocol: (§1)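 From the Consortium for Functional Glycomics database, 3228 arrays were curated, keeping only those whose protein sequence was available. Binding is given as a within-array Z-score averaged across arrays sharing a protein sequence and across linkers. Negative Z-scores can be read as non-binding.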

In experiment [2] the target is Neu5Ac(a2-3)Gal(b1-4)GlcNAc(b1-6)GalNAc. A digest of the protocol:
as §1

Experiment [3] addresses Neu5Ac(a2-3)Gal(b1-4)GlcNAc(b1-6)[Gal(b1-3)]GalNAc. An outline of the steps: as §1
The target of experiment [4] is Neu5Ac(a2-3)Gal(b1-4)GlcNAc(b1-6)[Neu5Ac(a2-3)Gal(b1-3)]GalNAc. A digest of the protocol:
as §1

Experiment [5] deals with Neu5Ac(a2-3)Gal(b1-4)GlcNAc6S. A digest of the protocol:
as §1

Experiment [6] concerns the target Neu5Ac(a2-3)Gal(b1-4)[Fuc(a1-3)]GlcNAc. A digest of the protocol:
as §1

Experiment [7] has as its target Neu5Ac(a2-3)Gal(b1-4)[Fuc(a1-3)]GlcNAc(b1-2)Man. A digest of the protocol: as §1
Experiment [8] concerns the target Neu5Ac(a2-3)Gal(b1-4)[Fuc(a1-3)]GlcNAc(b1-3)Gal. An outline of the steps:
as §1

Experiment [9] concerns the target Neu5Ac(a2-3)Gal(b1-4)[Fuc(a1-3)]GlcNAc(b1-3)Gal(b1-4)GlcNAc. A digest of the protocol:
as §1

In experiment [10] the target is Neu5Ac(a2-3)Gal(b1-4)[Fuc(a1-3)]GlcNAc(b1-3)Gal(b1-4)[Fuc(a1-3)]GlcNAc(b1-3)Gal(b1-4)[Fuc(a1-3)]GlcNAc. An outline of the steps: as §1
The target in experiment [11] is Neu5Ac(a2-3)Gal(b1-4)[Fuc(a1-3)]GlcNAc(b1-3)GalNAc. A digest of the protocol:
as §1

The target of experiment [12] is Neu5Ac(a2-3)Gal(b1-4)[Fuc(a1-3)]GlcNAc(b1-6)[Gal(b1-3)]GalNAc. An outline of the steps:
as §1

Experiment [13] concerns the target Neu5Ac(a2-3)Gal(b1-4)[Fuc(a1-3)]GlcNAc(b1-6)[Neu5Ac(a2-3)Gal(b1-3)]GalNAc. A digest of the protocol: as §1
Experiment [14] addresses Neu5Ac(a2-3)Gal(b1-4)[Fuc(a1-3)]GlcNAc6S. A digest of the protocol:
as §1

For experiment [15], the target named is Neu5Ac(a2-3)Gal6S(b1-4)GlcNAc. A digest of the protocol: as §1
Experiment [16] deals with Neu5Ac(a2-3)Gal6S(b1-4)[Fuc(a1-3)]GlcNAc. A digest of the protocol:
as §1

In a further experiment the target is Neu5Ac(a2-3)GalNAc. A digest of the protocol:
as §1

Experiment [17] addresses Neu5Ac(a2-3)GalNAc(b1-4)GlcNAc. A digest of the protocol:
as §1

Experiment [18] addresses Neu5Ac(a2-3)[GalNAc(b1-4)]Gal(b1-4)Glc. An outline of the steps:
as §1

Experiment [19] concerns the target Neu5Ac(a2-3)[GalNAc(b1-4)]Gal(b1-4)GlcNAc. A digest of the protocol: as §1
The target of experiment [20] is Neu5Ac(a2-3)[GalNAc(b1-4)]Gal(b1-4)GlcNAc(b1-3)GalNAc. An outline of the steps:
as §1

Experiment [21] concerns the target Neu5Ac(a2-3)[Neu5Ac(a2-6)]GalNAc. A digest of the protocol: as §1
The next experiment addresses Neu5Ac(a2-6)Gal. A digest of the protocol: as §1

The list shows a part of the results.

B1: CAA (Caragana arborescens) (protein)
chain: VAVEFDTFDNPDWDPRTKHIGIDVNSIRSNKTTQWGFWNRQVADVDISYEASSKTLNVSLYYPGESYIVTDVVDLKDILPEWVRIGF
Regarding B1, the “glycan array binding signal (z-score)” value in experiment [1] was -0.252; in [2], -0.231; in experiment [3], -0.243; in experiment [4], -0.243; in experiment [5] it was -0.249; in [6], -0.245. Further, the “glycan array binding signal (z-score)” value in experiment [7] was -0.243; in [8], -0.242; in [9], -0.243; in [10], -0.225; in experiment [11], -0.24; in experiment [12], -0.219. Further, the “glycan array binding signal (z-score)” value in experiment [13] is -0.236; in experiment [14], -0.247; in experiment [15], -0.243; in [16], -0.244; with Neu5Ac(a2-3)GalNAc, -0.243; in experiment [17], -0.244. Besides, the “glycan array binding signal (z-score)” value was -0.241 in experiment [18]; -0.234 in experiment [19]; -0.205 in experiment [20]; -0.238 in experiment [21]; -0.244 with Neu5Ac(a2-6)Gal.
